Results published in PubChem BioAssay AID540317 (National Center for Advancing Translational Sciences (NCATS), 2011).
Screen size: about 390,000 compounds; about 2,200 (0.56%) were called active. The inconclusive results got no clear call from the source; some entries with a clear call stand among them for comparison. The call rests on the fitted dose curve; in most records, active means well fitted inhibition curve with a large enough effect; inconclusive means small, poorly fitted or top-dose-only effect; inactive means no such curve, though single readings can be large or run the other way. Potencies of inconclusive entries are doubtful fits and often do not repeat.

target: Chromobox protein homolog 1 (Homo sapiens) (UniProt P83916); assay: HTS for Inhibitors of HP1-beta Chromodomain Interactions with Methylated Histone Tails; conditions: AlphaScreen HP1-beta / biotin-H3K9me3 peptide binding; series mostly up to 114 µM; activity change, negative = inhibition: at the top concentration; further: nearly all actives have a fitted effect of over 70% in size
Summary of the method: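 HP1-beta protein (50 nM final) preincubated 30 min at room temperature with biotinylated H3(1-18)K9me3 peptide (50 nM) in PBS pH 7.4, 0.01% Tween-20, then compound added for 30 min. AlphaScreen streptavidin donor/nickel chelate acceptor beads (10 ug/mL final), 30 min dark, luminescence read.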
Potency means the concentration at half of the fitted maximal effect; tags describe the fitted curve by direction and shape.

Chain of UniProt P83916 (P83916 whole entry, looked up): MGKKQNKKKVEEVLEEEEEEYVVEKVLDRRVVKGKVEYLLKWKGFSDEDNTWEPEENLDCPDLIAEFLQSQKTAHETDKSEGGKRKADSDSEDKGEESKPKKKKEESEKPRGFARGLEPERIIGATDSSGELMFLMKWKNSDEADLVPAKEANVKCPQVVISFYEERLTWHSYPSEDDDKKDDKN

| Structure (SMILES) | activity change, negative = inhibition | Potency |
| --- | --- | --- |
| CCC(=O)N1CCc2cc(CNS(=O)(=O)c3cc(Cl)ccc3OC)ccc21 | inactive: 17.5% [at 57 µM] | – |
| COc1ccc(CCNC(=O)CCCOc2ccc(C)cc2)cc1OC | – | inconclusive: 39.8 µM [inhibitor, single point] |
| N#C/C(=C\c1ccc(O)c(O)c1)S(=O)(=O)c1ccccc1 | – | inconclusive: 3.55 µM [inhibitor, partial curve, poor fit] |
| Brc1ccccc1C1Nc2cccc3cccc(c23)N1 | – | inconclusive: 39.8 µM [inhibitor, partial curve] |
| CCc1ccc(N=c2c([N+](=O)[O-])nn(-c3ccccc3)n2O)cc1 | – | inconclusive: 39.8 µM [inhibitor, partial curve] |
| Cc1ccc(NS(=O)(=O)c2cc(NC(=O)c3ccc4c(c3)NC(=O)CS4)ccc2Cl)c(C)c1 | – | inconclusive: 15.8 µM [inhibitor, partial curve] |
| COc1cccc(CN2CCN(S(=O)(=O)c3ccc(NC(C)=O)cc3)CC2)c1OC | – | inconclusive: 56.2 µM [inhibitor, single point] |
| CCOc1ccc2nc(N(CCCN(C)C)C(=O)c3ccc4c(c3)CCCC4)sc2c1 | inactive: -4.05% | – |
| COc1cc2c(cc1NC(=O)CSc1nccn1C)oc1ccccc12 | – | inconclusive: 20 µM [inhibitor, full curve] |
| CCCOc1ccc(C2CC(=O)NC2=O)cc1 (stereo not drawn) | – | inconclusive: 44.7 µM [inhibitor, partial curve] |
| O=C(COC(=O)c1ccccc1O)NC(=O)NCc1ccccc1 | inactive: 45.5% | – |
| Cn1c(CNc2ccc(O)cc2)nc2ccccc21 | inactive: 22.7% | – |
| COc1ccc(NC(=O)C(C)N2C(=O)c3ccccc3C2=O)c(OC)c1 (stereo not drawn) | inactive: 31.8% | – |
| O=C(NNC(=S)NC(=O)c1ccco1)c1ccc(NC(=O)c2ccccc2)cc1 | inactive: 35.2% | – |
| CC(C)(C)c1cc(C(=S)N2CCN(CCO)CC2)cc(C(C)(C)C)c1O | – | inconclusive: 20 µM [inhibitor, full curve, poor fit] |
| CC1Cc2cc(S(=O)(=O)CCC(=O)Nc3ccc(OC(F)(F)F)cc3)ccc2N1C(=O)C1CC1 (stereo not drawn) | inactive: 26.8% | – |
| O=C(NCCc1ccccc1)c1ccc2nc(-c3ccco3)c(-c3ccco3)nc2c1 | – | inconclusive: 25.1 µM [inhibitor, single point] |
| CC(=O)c1c(C)oc2ccc(N(C(=O)Oc3ccccc3)S(=O)(=O)c3ccc(Br)cc3)cc12 | inactive: 22.9% | – |
| CN(C)CCOCCOc1ccc(Cl)cc1Br | – | inconclusive: 31.6 µM [inhibitor, partial curve] |
| COc1ccc(NCc2ccc(OC)c(Cn3ccnc3)c2)c(OC)c1 | – | inconclusive: 56.2 µM [inhibitor, partial curve] |
| CCn1cc(C(=O)N2CCN(c3ccccc3OC)CC2)c(=O)c2cc(S(=O)(=O)N3CCCCC3)ccc21 | inactive: -4.24% | – |
| COc1ccc(OCC(=O)Nc2ccc(N3CCN(C(=O)c4ccccc4)CC3)c(Cl)c2)cc1 | inactive: 13.5% | – |
| CCN(C(=O)c1sc2nc3n(c(=O)c2c1C)CCCCC3)c1ccccc1F | inactive: 57.5% | – |
| CCOc1ccc(-n2c(SCc3ccc([N+](=O)[O-])cc3)nnc2-c2ccc(OC)cc2)cc1 | – | inconclusive: 5.62 µM [inhibitor, full curve, poor fit] |
| CC(C)Oc1cccc(C(=O)NC(=S)Nc2ccc(N3CCN(C)CC3)cc2)c1 | – | inconclusive: 20 µM [inhibitor, full curve, poor fit] |

| Structure (SMILES) | activity change, negative = inhibition | Potency |
| --- | --- | --- |
| O=[N+]([O-])c1cccc(S(=O)(=O)c2ccc(N3CCCCC3)c([N+](=O)[O-])c2)c1 | – | inconclusive: 20 µM [inhibitor, full curve] |
| COc1ccc(C2NCCc3c2[nH]c2ccccc32)cc1COc1ccc(F)cc1 (stereo not drawn) | – | inconclusive: 39.8 µM [inhibitor, partial curve] |
| CN(C)CCCNc1nc2sc3c(c2c(=O)n1CCc1ccccc1)CCCCC3 | – | inconclusive: 70.8 µM [inhibitor, partial curve] |
| CCn1c(SCC(=O)NC2CCCC2)nnc1C(C)NC(=O)c1ccccc1Br (stereo not drawn) | inactive: 39.6% | – |
| O=C(O)c1ccc(Cn2cnc3scc(-c4ccccc4)c3c2=O)cc1 | inactive: 44.7% | – |
| Cc1ccc(N2CCN(C(=O)c3nn(C)c4c3CS(=O)(=O)c3ccccc3-4)CC2C)cc1 (stereo not drawn) | – | inactive |
| COc1ccc(Br)cc1/C=N/N1CCN(Cc2ccccc2)CC1 | – | inconclusive: 20 µM [inhibitor, full curve] |
| Cc1ccc(C(C)C)cc1OCCOCCN1CCCC1 | – | inconclusive: 31.6 µM [inhibitor, single point] |
| Cc1nnc(C)n1/N=C/c1cc(Br)ccc1O | inactive: 2.43% | – |
| COc1cc(/C=C2\SC(=O)N(c3ccc(Cl)cc3)C2=O)cc([N+](=O)[O-])c1O | – | inconclusive: 31.6 µM [inhibitor, partial curve, poor fit] |
| Cc1c(NC(=O)COC(=O)c2ccc(Cl)nc2)c(=O)n(-c2ccccc2)n1C | inactive: 0.445% | – |
| COc1cccc(CN2CCSCC2)c1 | – | inconclusive: 79.4 µM [inhibitor, single point] |
| Cc1ccc(NCN2C(=O)C3C4C=CC(C4)C3C2=O)cc1 (stereo not drawn) | inactive: -8.08% | – |
| Cc1cccn2cc(-c3cccc(NS(=O)(=O)c4ccc(Cl)c(Cl)c4)c3)nc12 | – | inconclusive: 89.1 µM [inhibitor, single point] |
| CN1Cc2sc(NC(=S)NC(=O)c3ccccc3)c(C#N)c2CC1(C)C | – | inconclusive: 35.5 µM [inhibitor, partial curve] |
| CCc1ccc2occ(CC(=O)Nc3c(C(=O)Nc4ccc(OC)cc4)oc4ccccc34)c2c1 | inactive: 2.71% | – |
| Cc1cc(C)c(C#N)c(SCC(=O)Nc2cc(C)on2)n1 | inactive: 21.2% | – |
| COc1cc(C2c3cc4c(cc3OC(NNC(N)=S)C2C)OCO4)cc(OC)c1OC (stereo not drawn) | – | inconclusive: 3.98 µM [inhibitor, partial curve, poor fit] |
| Cc1ccc2nc(Cl)c3cc(C(=O)N(C)C4CCCCC4)sc3c2c1 | inactive: 34.7% | – |
| COc1ccc(CCN2CC(C(=O)N(C)Cc3cccnc3)CC2=O)cc1OC (stereo not drawn) | inactive: 26.6% | – |
| Cc1ccc(O)c(C2=Nc3ccccc3N=C(c3ccc([N+](=O)[O-])cc3)C2)c1 | – | inconclusive: 10 µM [inhibitor, partial curve, poor fit] |
| CCCCC#Cc1ccccc1CC(=O)Nc1ccccc1 | inactive: 47.3% | – |
| O=C(OCc1cc(=O)n2c(n1)sc1ccccc12)c1cccc(O)c1 | – | inconclusive: 14.1 µM [inhibitor, partial curve, poor fit] |
| Cc1cccc(NC(=O)CN2C(=O)S/C(=C\c3ccc(-c4cccc(C(=O)O)c4C)o3)C2=O)c1 | – | inconclusive: 89.1 µM [inhibitor, single point] |
| Oc1ccc(-c2nc3ncccn3c2Nc2ccc3c(c2)OCCO3)cc1 | – | inconclusive: 28.2 µM [inhibitor, single point] |

| Structure (SMILES) | activity change, negative = inhibition | Potency |
| --- | --- | --- |
| Nc1c(C(=O)Nc2ccc(Cl)c(C(F)(F)F)c2)sc2nc(-c3ccncc3)ccc12 | inactive: 32% | – |
| CN(C(=O)CCc1ccccc1)c1nnc(-c2ccncc2)s1 | – | inconclusive: 89.1 µM [inhibitor, single point] |
| O=C1CCc2cc(S(=O)(=O)NCc3ccc(F)cc3)cc3c2N1CC3 | – | inactive |
| CC1CN(C2CCN(C(=O)c3ccccc3)CC2)CC(C)O1 (stereo not drawn) | – | inconclusive: 56.2 µM [inhibitor, partial curve] |
| O=C(N/N=C/c1cc(Cl)ccc1O)c1ccccc1Br | inactive: 22.6% | – |
| O=C(CCCN1C(=O)/C(=C/c2ccc(F)cc2)SC1=S)NCCCn1ccnc1 | – | inconclusive: 39.8 µM [inhibitor, partial curve] |
| CCC(c1nnnn1Cc1ccco1)N1CCN(C(=O)c2ccco2)CC1 (stereo not drawn) | inactive: 28.5% | – |
| Cc1ccc(NC(=S)NCc2ccccc2)cc1[N+](=O)[O-] | inactive: 15.7% | – |
| CCC(C(=O)NCC1CCCO1)N(C(=O)c1snc(C(N)=O)c1N)c1ccc(Cl)cc1 (stereo not drawn) | inactive: 16% | – |
| COc1ccc(Nc2nc(N)nc(COc3ccc(OC)cc3)n2)cc1 | inactive: 39.5% | – |
| O=C(Cn1nc(C(=O)O)c2ccccc2c1=O)c1c[nH]c2ccccc12 | – | inconclusive: 89.1 µM [inhibitor, partial curve, poor fit] |
| C=CCNC(=S)NN=C1CCC(c2ccccc2)CC1 (stereo not drawn) | – | inconclusive: 39.8 µM [inhibitor, partial curve] |
| CC(C)/C(=N/Nc1ccccc1[N+](=O)[O-])c1ccccc1 | – | inconclusive: 14.1 µM [inhibitor, full curve] |
| COc1ccc(Br)cc1CNC(=O)Nc1cccs1 | inactive: 3.75% | – |
| Cc1ccccc1NC(=O)CCc1c(C)nn(-c2ccc(N3CCCCC3)nn2)c1C | – | inconclusive: 22.4 µM [inhibitor, single point] |
| O=S(=O)(/C(=C/c1ccc(C(F)(F)F)cc1)c1nc2ccccc2[nH]1)c1ccccc1 | inactive: -12.1% | – |
| COc1cc(-c2nc3sccn3c2Nc2cccc(C)c2)ccc1O | – | inconclusive: 44.7 µM [inhibitor, partial curve] |
| CCN(CC)CC(O)Cn1c(C)c(-c2ccccc2)c2cc([N+](=O)[O-])ccc21 (stereo not drawn) | inactive: -12.4% | – |
| CN1C(=O)C2C(c3ccc(N(C)C)cc3)NN(Cc3ccccc3)C2C1=O (stereo not drawn) | – | inconclusive: 50.1 µM [inhibitor, partial curve] |
| CNC(=O)c1cc(S(=O)(=O)N(C)C)ccc1Cl | inactive: 29.7% | – |
| CS(=O)(=O)N1CCN(c2ccc(C(=O)NC34CC5CC(CC(C5)C3)C4)cc2[N+](=O)[O-])CC1 | – | inconclusive: 39.8 µM [inhibitor, single point] |
| Oc1ccc(/C=N/NC(=S)Nc2cccnc2)cc1O | – | inconclusive: 39.8 µM [inhibitor, partial curve] |
| CCCCC(=O)NC(c1ccco1)c1cc(Cl)c2cccnc2c1O (stereo not drawn) | inactive: 30.8% | – |
